In PubChem BioAssay AID504332 (National Center for Advancing Translational Sciences (NCATS), 2011):
Screen size: about 350,000 compounds; about 31,000 (8.9%) were called active. This list was built around the results that the source calls inconclusive (neither active nor inactive); the mix of calls is not that of the screen. Calls follow the shape of the dose curve; as a rule, active = well fitted inhibition curve with a large enough effect; inconclusive = small, poorly fitted or top-dose-only effect; inactive = no such curve, though single readings can be large or run the other way. A potency beside an inconclusive call is a rough fit, not a confirmed value.

target: Histone-lysine N-methyltransferase EHMT2 (Homo sapiens) (UniProt Q96KQ7); assay: qHTS Assay for Inhibitors of Histone Lysine Methyltransferase G9a; details: G9a H3K9 monomethylation, AlphaScreen, 2 h; activity, negative = inhibition: at 59 µM (top of the series) unless noted; also: nearly all actives have a fitted effect of over 75% in size
UniProt Q96KQ7, sequence (Q96KQ7 whole entry, looked up): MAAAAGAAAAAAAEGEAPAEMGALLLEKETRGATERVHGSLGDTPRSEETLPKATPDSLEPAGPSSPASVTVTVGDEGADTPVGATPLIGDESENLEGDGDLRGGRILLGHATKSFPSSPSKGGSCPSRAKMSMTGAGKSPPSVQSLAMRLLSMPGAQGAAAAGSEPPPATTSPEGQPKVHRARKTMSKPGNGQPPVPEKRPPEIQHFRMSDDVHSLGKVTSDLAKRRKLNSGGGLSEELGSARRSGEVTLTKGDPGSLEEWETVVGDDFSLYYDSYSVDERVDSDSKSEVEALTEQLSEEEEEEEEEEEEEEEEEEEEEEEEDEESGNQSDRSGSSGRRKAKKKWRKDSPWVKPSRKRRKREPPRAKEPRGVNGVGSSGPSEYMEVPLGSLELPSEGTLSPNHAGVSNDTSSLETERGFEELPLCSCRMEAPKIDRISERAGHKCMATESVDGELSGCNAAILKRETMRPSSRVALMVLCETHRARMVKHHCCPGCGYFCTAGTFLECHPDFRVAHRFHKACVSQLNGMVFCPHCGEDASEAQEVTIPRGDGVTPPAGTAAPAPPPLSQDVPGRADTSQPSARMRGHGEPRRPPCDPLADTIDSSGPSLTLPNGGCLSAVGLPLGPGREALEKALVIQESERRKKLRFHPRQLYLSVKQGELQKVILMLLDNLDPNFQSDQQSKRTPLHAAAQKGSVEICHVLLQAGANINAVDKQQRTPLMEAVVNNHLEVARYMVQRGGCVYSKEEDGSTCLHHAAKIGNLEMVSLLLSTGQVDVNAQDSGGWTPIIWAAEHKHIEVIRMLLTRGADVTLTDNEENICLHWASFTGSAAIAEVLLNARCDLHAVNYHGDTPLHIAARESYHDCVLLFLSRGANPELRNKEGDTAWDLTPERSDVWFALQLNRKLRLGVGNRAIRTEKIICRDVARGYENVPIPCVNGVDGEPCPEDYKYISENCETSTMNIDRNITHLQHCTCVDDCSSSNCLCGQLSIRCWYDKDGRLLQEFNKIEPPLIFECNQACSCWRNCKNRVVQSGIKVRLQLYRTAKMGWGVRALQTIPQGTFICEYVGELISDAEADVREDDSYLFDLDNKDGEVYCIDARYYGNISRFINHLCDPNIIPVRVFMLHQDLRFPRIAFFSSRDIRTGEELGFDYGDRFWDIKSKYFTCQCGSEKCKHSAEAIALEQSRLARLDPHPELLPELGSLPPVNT
Method in brief: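 G9a (20 nM) preincubated 15 min RT with compounds, then 500 nM biotinylated H3K9 peptide and 20 uM SAM added; 2 h RT reaction. Monomethyl-H3K9 product detected by AlphaScreen with anti-H3K9me1 antibody, streptavidin donor and anti-rabbit IgG acceptor beads.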
% is scaled to controls: 0 for no effect and ±100 for the full control effect; potency is read from the fitted curve at half-maximal effect; tags tell the direction and shape of the fitted curve.

SMILES | activity, negative = inhibition | Potency
COc1ccc(S(=O)(=O)NCCCN2CCOCC2)cc1F | inactive: 14% [at 102 µM] | 
Fc1ccc(-c2cc(C(F)(F)F)n3ncnc3n2)cc1 |  | active: 12.6 µM
Cc1nn(CC(=O)Nc2sc3c(c2C#N)CCC(C(C)(C)C)C3)c(C)c1[N+](=O)[O-] (stereo not drawn) |  | active: 44.7 µM
CCOC(=O)N1CCN(C(=O)CCC2CCCC2)CC1 | inactive: -1.91% [at 102 µM] | 
COc1ccccc1-n1nnnc1SCC(=O)NCC1CCCO1 (stereo not drawn) |  | active: 56.2 µM
CC(C)(C)NC(=O)CN(C(=O)CS(=O)CC(=O)Nc1ccc(F)cc1)c1cccc(F)c1 (stereo not drawn) | inactive: 8.27% [at 102 µM] | 
COc1cc(OC)cc(C(=O)N2CCN(c3ncccn3)CC2)c1 |  | inconclusive: 17.8 µM [inhibitor, single point]
COc1ccc(NC(=S)N/N=C/c2cccn2Cc2ccc(F)cc2Cl)cc1 |  | active: 22.4 µM
O=C(NC(=S)Nc1ccc(S(=O)(=O)Nc2ncccn2)cc1)c1ccc(Br)cc1 |  | active: 50.1 µM
CCOC(=O)c1cc(-c2ccc(OC)cc2)n(CCC(=O)Nc2ccc(OC)cc2OC)c1C |  | inconclusive: 12.6 µM [inhibitor, partial curve]
O=[N+]([O-])c1cc(-c2cnc3ccccc3n2)ccc1Oc1ccc(Cl)cc1 |  | active: 14.1 µM
CCn1ccnc1CN(C)Cc1nc(-c2ccc(C(=O)OC)cc2)no1 | inconclusive: -64.3% [inhibitor] | 
Cc1oc(-c2ccccc2F)nc1CS(=O)(=O)CC(=O)NC(C)CCc1ccccc1 (stereo not drawn) |  | inconclusive: 0.891 µM [inhibitor, full curve]
NC(=S)N=Nc1c(O)[nH]c2ccc(F)cc12 | inactive: 27.3% | 
Cc1ccc(C(=O)Nc2ncc3c(n2)CC(c2ccco2)CC3=O)cc1 (stereo not drawn) |  | inconclusive: 50.1 µM [inhibitor, partial curve]
Cc1cc(C)nc(N(C#N)Cc2cccc3ccccc23)n1 | inactive: 49.6% | 
CCOC(=O)c1ccc(NC(=S)NC(=O)COc2ccccc2)cc1 | inactive: 22.2% | 
CC(C)(C)c1cc(C(=O)NCCCn2ccnc2)cc(C(C)(C)C)c1 |  | inconclusive: 56.2 µM [inhibitor, partial curve, poor fit]
CCOC(=O)C1(C)C=C(Nc2cccc(C)c2)C(=O)N1c1ccccc1 (stereo not drawn) |  | inconclusive: 1.58 µM [inhibitor, partial curve, poor fit]
COc1cc(-c2nnc(SCC(=O)Oc3ccc(C)cc3C)o2)cc(OC)c1OC |  | inconclusive: 39.8 µM [inhibitor, partial curve, poor fit]
Cc1cccc(C(=O)Nc2sc(C)c(-c3ccccc3)c2C#N)c1 | inconclusive: -67.6% [inhibitor] | 
Cc1cc2ccccc2nc1SCC(=O)Nc1nc(-c2ccccc2)cs1 | inactive: -11.7% [at 102 µM] | 
COc1cc(NC(=O)CCc2c(C)nc3c4c(C)cc(C)nc4nn3c2C)cc(OC)c1 |  | inconclusive: 12.6 µM [inhibitor, partial curve]
CCN(CC(=O)Nc1c(F)cccc1F)C(=O)Cc1ccc2c(c1)CCC2 |  | active: 10 µM
Fc1ccc(N=c2ssnc2Cl)c(F)c1 |  | active: 1.58 µM

SMILES | activity, negative = inhibition | Potency
COCCN(C(=S)Nc1ccccc1C)C(C)c1ccco1 (stereo not drawn) | inconclusive: -76.3% [inhibitor] | 
CC(=O)N1CCC(C(=O)Nc2cc(C)cc(C)c2)CC1 |  | inconclusive: 56.2 µM [inhibitor, partial curve, poor fit]
N#CCCN(C(=O)COC(=O)CNS(=O)(=O)c1ccc2ccccc2c1)c1ccccc1 |  | inconclusive: 35.5 µM [inhibitor, single point]
CCn1c(=NC(=O)CN2C(=O)CCC2=O)sc2c(C)cc(C)cc21 |  | inconclusive: 50.1 µM [inhibitor, partial curve]
CCOC(=O)c1c(C)oc2c1c(C(c1ccccc1)N1CCOCC1)c(O)c1ccccc12 (stereo not drawn) |  | inconclusive: 3.55 µM [inhibitor, full curve, poor fit]
O=C1c2[nH]nc(-c3ccccc3O)c2C(c2ccc(Cl)cc2)N1CCc1ccccc1 (stereo not drawn) | inactive: 9.43% | 
Cc1c(C)n(-c2ccc(Cl)cc2)c2ncnc(N)c12 |  | inconclusive: 89.1 µM [inhibitor, single point]
O=C(O)c1ccccc1NC(=O)C(Cc1ccccc1)N1C(=O)c2ccccc2C1=O (stereo not drawn) | inactive: -15.8% [at 102 µM] | 
CC(C)(C)C(=O)N1CCC[C@@]1(CO)C(=O)O |  | active: 14.1 µM
Cc1ccc(C(=O)N2CCC3(CC2)Oc2ccc(F)cc2C(=O)C32CC(c3ccccc3)=NO2)s1 (stereo not drawn) | inactive: -3.62% | 
CC(OC(=O)CCCN=C1NS(=O)(=O)c2ccccc21)C(=O)NC1CCCCC1C (stereo not drawn) |  | inconclusive: 8.91 µM [inhibitor, partial curve, poor fit]
CCc1ccc(NC(=O)N(Cc2cn(CC)c3ccccc23)C2CCCCC2)cc1 | inactive: -39.9% | 
COc1ccc(CNC(=O)c2ccc3c(c2)CCN3S(=O)(=O)c2ccc(Cl)cc2)cc1 | inactive: 3.9% | 
COc1ccc(OC)c(S(=O)(=O)ON2C(=O)c3ccccc3C2=O)c1 |  | active: 1.41 µM
CCOC(=O)c1c(C)[nH]c(C)c1S(=O)(=O)N1CCN(c2ccc(Cl)cc2)CC1 |  | inconclusive: 31.6 µM [inhibitor, partial curve, poor fit]
Cc1cc2n(n1)C(c1ccsc1)Nc1ccccc1-2 (stereo not drawn) |  | inconclusive: 2 µM [inhibitor, partial curve, poor fit]
CCn1cc([N+](=O)[O-])c(C(=O)N2N=C(c3ccc4ccccc4c3)CC2c2cc(Br)ccc2O)n1 (stereo not drawn) |  | inconclusive: 17.8 µM [inhibitor, single point]
CCc1ccccc1-n1c2c(cc(-c3nc(-c4ccc(Cl)cc4)cs3)c1=O)C(=O)CC(C)(C)C2 |  | inconclusive: 28.2 µM [inhibitor, partial curve, poor fit]
CCCCOc1ccc(CSC(CC(=O)O)C(=O)O)cc1 (stereo not drawn) |  | inconclusive: 39.8 µM [inhibitor, single point]
COc1ccc(-c2ccc(CCC(=O)O)n2NC(=O)c2cccs2)cc1 |  | active: 14.1 µM
COc1ccc(OCC(=O)NCCS(=O)(=O)N2CCN(c3ccc(F)cc3)CC2)cc1 | inactive: 17.9% | 
CCCn1nc(NC(=O)COC)c2cc3cc(C)ccc3nc21 |  | inconclusive: 1.26 µM [inhibitor, full curve]
COc1ccc(NC(C)C(=O)N/N=C/c2ccc([N+](=O)[O-])s2)cc1 (stereo not drawn) |  | inconclusive: 35.5 µM [inhibitor, partial curve]
NC(C(=O)O)c1ccc(O)cc1 (stereo not drawn) | inactive: -27.1% [at 12.7 µM] | 
COc1cc(/C=N/NC(=O)c2ccc(-n3cccc3)cc2)ccc1O |  | active: 79.4 µM

SMILES | activity, negative = inhibition | Potency
CCN(CC)C(=O)c1sc(N2C(=O)Nc3ccccc3N2O)c(C(=O)OC)c1C |  | inconclusive: 89.1 µM [inhibitor, partial curve, poor fit]
COc1cc(/C=N/N2C(=O)C3C4C=CC(CC4)C3C2=O)ccc1O (stereo not drawn) |  | inconclusive: 44.7 µM [inhibitor, partial curve]
CC(C)CCNC(=O)c1sc2ccc(S(=O)(=O)N3CCCCC3)cc2c1N |  | inconclusive: 10 µM [inhibitor, partial curve, poor fit]
O=C(Nc1ccc(N2CCOCC2)cc1)c1c(F)cccc1Cl |  | inconclusive: 7.08 µM [inhibitor, single point]
O=C(COC(=O)c1ccccn1)NCCCc1ccccc1 |  | inconclusive: 50.1 µM [inhibitor, partial curve, poor fit]
C=C1c2cccc(OC)c2O[C@H](C(=O)OCC)[C@@H]1CCC(C)C |  | active: 31.6 µM
O=C(c1cccc(F)c1)N1CCN(c2cc(N3CCCCC3)c(F)cc2[N+](=O)[O-])CC1 | inconclusive: -89.7% [inhibitor] | 
CNC(=S)N(CCc1c(C)[nH]c2ccc(C)cc12)Cc1cccnc1 |  | active: 79.4 µM
CCOCCOC(=O)C1=C(C)N(C)C(=O)NC1c1cc(Cl)c(O)c(OC)c1 (stereo not drawn) |  | inconclusive: 79.4 µM [inhibitor, single point]
O=C(Cn1c(-c2ccccc2)c[n+]2ccsc12)c1ccccc1 |  | inconclusive: 50.1 µM [inhibitor, partial curve]
Cc1c(Cl)cccc1NC(=O)c1cc(-c2ccco2)on1 |  | inconclusive: 89.1 µM [inhibitor, single point]
COc1cccc(CNc2ccccc2O)c1OCc1ccccc1F |  | active: 35.5 µM
CCOc1ccc(NC(=O)CN(C)S(=O)(=O)c2ccc3[nH]c4c(c3c2)CCCC4)cc1 |  | active: 10 µM
CN1CCN(S(=O)(=O)c2cccc(C(=O)Nc3nc(-c4ccccc4)cs3)c2)CC1 |  | inconclusive: 20 µM [inhibitor, partial curve, poor fit]
Cc1cccc(C2c3[nH]c4ccccc4c3CCN2C(=O)c2cc(-c3cccn3C)n[nH]2)n1 (stereo not drawn) |  | active: 28.2 µM
CN(C)CCCNC(=S)/N=c1\sccn1Cc1ccccc1Cl | inactive: -1.36% | 
CCC(C(=O)NCCc1ccc(Cl)cc1)n1ccc2cc(S(=O)(=O)N3CCCCC3)ccc21 (stereo not drawn) | inactive: -26.4% | 
O=C(CN1C(=O)CC(c2ccco2)Sc2ccccc21)NCc1ccc2c(c1)OCO2 (stereo not drawn) | inconclusive: -79.9% [inhibitor] | 
C=CCOc1c(CCC)cc(CCC)cc1C(N)=O | inactive: 1.46% [at 102 µM] | 
O=C(COC(=O)c1c2c(nc3ccccc13)CCCCC2)NCc1ccc2c(c1)OCO2 |  | inconclusive: 39.8 µM [inhibitor, single point]
CN(C)c1ncc2nc(-c3ccc(F)cc3)c(=O)n(C[C@H]3CCCO3)c2n1 | inactive: 2.77% [at 0.501 µM] | 
CCn1cnc2cc(NC(=O)c3ccco3)ccc21 | inactive: -12.4% | 
O=C(NCCCCl)C1CC(=O)N(CCc2ccc(F)cc2)C1 (stereo not drawn) |  | inconclusive: 89.1 µM [inhibitor, single point]
